# Measured values from PubChem BioAssay (NCATS).
# Inconclusive results, whose numbers are uncertain, are shown with a selection of clear calls. Entries that show only a call come without a potency. For part of these data: A potency beside an inconclusive call is a rough fit, not a confirmed value. Active and inactive are the calls of the source. Unless noted, the call rests on the fitted dose curve; in most records, active means well fitted curve in the direction sought with a large enough effect; inconclusive means small, poorly fitted or top-dose-only effect, or another doubt; inactive means no such curve, though single readings can be large; an effect the other way counts as inactive or inconclusive.
# Legend:
# [1] = qHTS of pediatric cancer cell lines to identify multiple opportunities for drug repurposing: Primary screen for TC32 cells (AID 1347089); further: nearly all actives have a fitted effect of over 60% in size
# Procedure, shortened: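 Luminescent ATP read-out (CellTiter-Glo) of metabolically active TC32 cells after 48 h exposure. Concentration-response curves came from 11-point (MIPE, 0.78 nM–46 µM) or 8-point (NPC, 0.59 nM–46 µM) primary titrations; follow-up used 11 points.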
# [2] = qHTS of pediatric cancer cell lines to identify multiple opportunities for drug repurposing: Primary screen for BT-12 cells (AID 1347101); further: nearly all actives have a fitted effect of over 25% in size
# Procedure, shortened: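 Cells (500-1,000/well) rested 5 h, then received compounds for 48 h; metabolically active cells were measured by CellTiter-Glo luminescence. Final concentrations spanned up to 46 µM (MIPE, 11-point) or 0.59 nM-46 µM (NPC, 8-point) in primary screens, 11-point in follow-ups.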
# [3] = tested on: Zika virus NS2B-NS3 protease; assay: Primary screen GU AMC qHTS for Zika virus inhibitors (AID 1347154); further: nearly all actives have a fitted effect of over 70% in size
# Procedure, shortened: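 Fluorogenic AMC-substrate cleavage by noncovalent NS2B-NS3 protease complex (25 nM, pH 8.0 Tris buffer with Tween 20) followed for 15 minutes at room temperature (~20% conversion). Percent inhibition from ex340/em450 signal change, fitted by 4-parameter Hill equation.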
# [4] = A High-Content qHTS Against Drug Library for the Identification of Small Molecules that Inhibit DYT1 Early Onset Primary Dystonia-Associated Cell Pathology (AID 1645839; calls by dose curve)
# Procedure, shortened: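 High-content imaging quantified EGFP-TorsinA mislocalization in HEK293-derived cells inducibly expressing DYT1 mutant torsinA, after 48 h exposure to compound given together with tetracycline induction. Cell count served as a toxicity channel alongside %pathology.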
# [5] = target: Cytochrome P450 3A4 (Homo sapiens) (UniProt P08684); assay: Cytochrome P450 family 3 subfamily A member 4 (CYP3A4) small molecule antagonists: luciferase qHTS assay (AID 1645841; active means well fitted curve in the direction sought with a large enough effect in the repeat runs; inconclusive means weak or mixed curves; inactive means no such curve, though single readings can be large; an effect the other way counts as inactive or inconclusive; further: nearly all actives have a fitted effect of over 45% in size)
# Chain of UniProt P08684 (P08684 whole entry, looked up): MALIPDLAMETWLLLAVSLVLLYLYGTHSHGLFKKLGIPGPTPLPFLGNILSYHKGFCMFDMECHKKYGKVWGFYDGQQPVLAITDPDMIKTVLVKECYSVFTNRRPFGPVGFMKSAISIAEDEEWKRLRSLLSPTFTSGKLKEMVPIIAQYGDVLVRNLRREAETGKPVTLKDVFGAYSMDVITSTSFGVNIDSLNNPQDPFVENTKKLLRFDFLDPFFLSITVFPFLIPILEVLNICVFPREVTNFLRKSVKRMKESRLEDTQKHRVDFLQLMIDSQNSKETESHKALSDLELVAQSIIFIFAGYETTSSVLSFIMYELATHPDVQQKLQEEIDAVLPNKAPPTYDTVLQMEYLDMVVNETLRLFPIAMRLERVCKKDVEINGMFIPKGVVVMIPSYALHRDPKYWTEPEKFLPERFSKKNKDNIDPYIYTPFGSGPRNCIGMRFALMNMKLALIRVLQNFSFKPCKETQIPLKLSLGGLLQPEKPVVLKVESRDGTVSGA
# Procedure, shortened: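 Luminescent CYP3A4 activity readout: compounds plus enzyme-substrate mix 10 min at room temperature, reaction started with NADPH regenerating system for 1 h, stopped with detection reagent, read after 20 min. Ketoconazole served as control.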
# [6] = Primary qHTS for inhibitors of nuclear receptor binding SET domain protein 2 (NSD2) in an isogenic RCH-ACV NSD2 p.E1099K mutant (9B) (AID 1645876); settings: activity change, negative = viability loss: at 44.9 µM (top of the series) unless noted; further: nearly all actives have a fitted effect of over 70% in size; further: potency means the concentration at half of the fitted maximal effect
# [7] = Primary qHTS for inhibitors of nuclear receptor binding SET domain protein 2 (NSD2) in an RCH-ACV wild type WT cells (2C) (AID 1645877); settings: activity change, negative = cell killing: at 44.9 µM (top of the series) unless noted; further: nearly all actives have a fitted effect of over 70% in size; further: potency means the concentration at half of the fitted maximal effect
# CASKI = assay: Primary qHTS to identify gynecologic anti-cancer compounds using libraries of approved drugs and bioactive compounds (AID 1345084); settings: Gynecologic cancer cell panel viability, ATPlite luminescence, 48 h; series mostly up to 57.5 µM; further: nearly all actives have a fitted effect of over 55% in size; further: potency means the concentration at half of the fitted maximal effect
# Procedure, shortened: (§1)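 ATP-based viability (ATPlite), 1,000 cells/well, 16 h pre-incubation, 48 h compound at 37 C, 5% CO2, 15 min RT before read.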
# Hek293T = assay: as above; settings: Gynecologic cancer cell panel viability, ATPlite luminescence, 48 h, control line for the selectivity index; series mostly up to 57.5 µM
# Procedure, shortened: as §1
# PA-1 = assay: as above; settings: Gynecologic cancer cell panel viability, ATPlite luminescence, 48 h; series mostly up to 57.5 µM
# Procedure, shortened: as §1
# [8] = Drug repurposing screens with cells derived from glioblastoma tumor samples (AID 1345199); settings: GBM patient neurospheres viability, ATP luminescence, 48 h; Potency: tumour line A unless noted; activity, negative = cell killing: at 46 µM (top of the series), tumour line A unless noted; further: potency means the concentration at half of the fitted maximal effect; nearly all actives have a fitted effect of over 40% in size
# Procedure, shortened: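 Primary testing used CD133+ neurospheres from four GBM patients, seven concentrations, 48 h exposure and ATP-based viability; confirmation added three slower-growing patient lines.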
# CP247 = assay: qHTS profiling for inhibitors of Plasmodium falciparum proliferation (AID 504749); further: nearly all actives have a fitted effect of over 60% in size; further: potency means the concentration at half of the fitted maximal effect; settings: P. falciparum in erythrocytes, SYBR Green DNA, 72 h; series mostly up to 28.7 µM
# Procedure, shortened: (§2)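 SYBR Green fluorescence of parasite DNA, read after lysis and overnight dark incubation, measured growth over 72 h in erythrocyte culture at 0.3% parasitemia and 2.5% hematocrit. Data normalised to DMSO and 0.29 uM artemisinin, with plate-drift correction.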
# CP260 = assay: as above; settings: P. falciparum in erythrocytes, SYBR Green DNA, 72 h; series mostly up to 28.7 µM
# Procedure, shortened: as §2
# CP266 = assay: as above; settings: P. falciparum in erythrocytes, SYBR Green DNA, 72 h; activity, negative = inhibition: at 28.7 µM (top of the series)
# Procedure, shortened: as §2
# CP269 = assay: as above; settings: P. falciparum in erythrocytes, SYBR Green DNA, 72 h; series mostly up to 28.7 µM
# Procedure, shortened: as §2
# GB4 = assay: as above; settings: P. falciparum in erythrocytes, SYBR Green DNA, 72 h; series mostly up to 28.7 µM
# Procedure, shortened: as §2
# TAB113 = assay: as above; settings: P. falciparum in erythrocytes, SYBR Green DNA, 72 h; series mostly up to 28.7 µM
# Procedure, shortened: as §2
# [9] = Primary redox qHTS assay for identification of artifact compounds. (AID 1845223); further: potency means the concentration at half of the fitted maximal effect
# Procedure, shortened: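 Redox-cycling detection via DTT (250 uM final) oxidation coupled to Amplex Red (25 uM)/HRP (250 mU/mL) in HBSS. 15 min preincubation plus 30 min after DTT, room temperature. Ex/Em 525/598 nm; 4-parameter Hill fit against DMSO and 10 uM DA3003.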
# CAOV3 = assay: Primary qHTS to identify gynecologic anti-cancer compounds using libraries of approved drugs and bioactive compounds (AID 1345084); settings: Gynecologic cancer cell panel viability, ATPlite luminescence, 48 h; series mostly up to 57.5 µM; further: nearly all actives have a fitted effect of over 55% in size; further: potency means the concentration at half of the fitted maximal effect
# Procedure, shortened: as §1
# [10] = Confirmatory screen GU Rhodamine qHTS for Zika virus inhibitors qHTS (AID 1347157); further: potency means the concentration at half of the fitted maximal effect; nearly all actives have a fitted effect of over 70% in size
# Procedure, shortened: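 Percent inhibition came from the 15-min rise in Rhodamine110 fluorescence (1.5 microM substrate, ~15% conversion), normalized to no-inhibitor and no-enzyme wells and Hill-fitted. Unlinked protease, 25 nM, pH 8.0 Tris buffer; compounds up to 114 microM, 15-min preincubation.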
# [11] = tested on: Zika virus NS2B-NS3 protease (unlinked complex); assay: Primary screen GU Rhodamine qHTS for Zika virus inhibitors: Unlinked NS2B-NS3 protease assay (AID 1347159); settings: Recombinant ZIKV NS2B-NS3 protease, Rhodamine110 substrate fluorescence; activity change, negative = inhibition: at 107 µM (top of the series); further: nearly all actives have a fitted effect of over 60% in size
# Procedure, shortened: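 Enzyme 25 nM in Tris-HCl pH 8.0 + 0.01% Tween 20; compounds up to 114 microM, 15 min RT dark; + Rhod110 substrate 1.5 microM; read t0 and 15 min; delta fluorescence → % inhibition → 4-parameter Hill fit.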
# [12] = tested on: Zika virus NS2B-NS3 protease (linked construct); assay: Primary screen NINDS Rhodamine qHTS for Zika virus inhibitors (AID 1347160); further: potency means the concentration at half of the fitted maximal effect; nearly all actives have a fitted effect of over 55% in size
# Procedure, shortened: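 Enzyme (25 nM, linked NS2B-NS3) was preincubated 15 min with compound in 10 mM Tris-HCl pH 8.0, 0.01% Tween 20. Rhodamine110 substrate (1.5 microM) was then added and fluorescence read at start and after 15 min.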
# [13] = target: Phospholipid hydroperoxide glutathione peroxidase GPX4 (Homo sapiens) (UniProt P36969); assay: Primary qHTS Assay for Inhibitors of Recombinant Selenoprotein Glutathione Peroxidase 4 (GPX4) (AID 1845192); settings: activity change, negative = inhibition: at 50 µM (top of the series) unless noted; further: nearly all actives have a fitted effect of over 65% in size
# Chain of UniProt P36969 (P36969 whole entry, looked up): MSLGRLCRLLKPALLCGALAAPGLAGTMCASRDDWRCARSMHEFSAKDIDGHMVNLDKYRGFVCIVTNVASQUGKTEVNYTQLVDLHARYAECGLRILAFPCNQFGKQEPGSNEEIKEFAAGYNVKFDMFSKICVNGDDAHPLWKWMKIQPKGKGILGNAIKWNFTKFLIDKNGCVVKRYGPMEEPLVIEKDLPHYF
# Procedure, shortened: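 NADPH consumption followed by fluorescence at 340/450 nm, t=0 and after 15 min at room temperature. Reaction started with cumene hydroperoxide (0.5 mM final) after 30 min compound–GPX4 preincubation; final 200 nM GPX4, 100 nM GR, 1 mM GSH, 0.5 mM NADPH.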
# OV90 = assay: Primary qHTS to identify gynecologic anti-cancer compounds using libraries of approved drugs and bioactive compounds (AID 1345084); settings: Gynecologic cancer cell panel viability, ATPlite luminescence, 48 h; series mostly up to 57.5 µM; further: nearly all actives have a fitted effect of over 55% in size; further: potency means the concentration at half of the fitted maximal effect
# Procedure, shortened: as §1
# SKOV3 = assay: as above; settings: Gynecologic cancer cell panel viability, ATPlite luminescence, 48 h; series mostly up to 57.5 µM
# Procedure, shortened: as §1
# Tags describe the fitted curve by direction and shape.
structure (smiles),measurement,setting,value
CCCCCCCCCCCCCCCCN,Potency,[1],inactive
same,Potency,[2],inactive
same,Potency,[3],inactive
same,Potency,[4],inactive
same,Potency,[5],inactive
same,Potency,[6],"inconclusive: 29.9 µM [inhibitor, single point]"
same,Potency,[7],"inconclusive: 29.9 µM [inhibitor, single point]"
same,Potency,CASKI,inactive
same,Potency,Hek293T,"inconclusive: 39.8 µM [rising, single point]"
same,Potency,PA-1,inactive
same,Potency,[8],"inconclusive: 7.94 µM [inhibitor, partial curve]"
same,Potency,CP247,inactive
same,Potency,CP260,"inconclusive: 17.8 µM [inhibitor, single point]"
same,Potency,CP266,"inconclusive: 0.675 µM [inhibitor, single point]"
same,Potency,CP269,inactive
same,Potency,GB4,inactive
same,Potency,TAB113,"inconclusive: 3.55 µM [inhibitor, single point]"
CC(C)C(O)(CO)CCO[C@@H]1O[C@H](CO[C@H]2OC[C@](O)(CO)[C@H]2O)[C@@H](O)[C@H](O)[C@H]1O (stereo not given in full),Potency,CASKI,inactive
CC1(C)CC[C@]2(C(=O)O[C@@H]3O[C@H](CO[C@@H]4O[C@H](CO)[C@@H](O)[C@H](O)[C@H]4O[C@@H]4O[C@H](CO)[C@H](O)[C@H](O)[C@H]4O)[C@@H](O)[C@H](O[C@@H]4O[C@H](CO)[C@@H](O)[C@H](O)[C@H]4O)[C@H]3O)CC[C@]3(C)C(=CCC4[C@@]5(C)CC[C@H](O[C@@H]6OC[C@@H](O)[C@H](O)[C@H]6O)[C@@](C)(C(=O)O)C5CC[C@]43C)[C@@H]2C1 (stereo not given in full),Potency,[9],"inconclusive: 1.13 µM [activator, full curve, poor fit]"
same,"activity change, negative = cytotoxicity",CAOV3,inactive: 6.72% [at 6.55 µM]
CC1=C2CC3C(CCC3(C)O)C(C)(O)CC2OC1=O (stereo not given),Potency,[10],"inconclusive: 44.1 µM [inhibitor, partial curve]"
same,Potency,[11],inactive
same,Potency,[12],"inconclusive: 28.2 µM [inhibitor, partial curve]"
same,Potency,[6],inactive
same,Potency,[7],inactive
same,Potency,[13],inactive
same,Potency,CASKI,inactive
same,Potency,OV90,"inconclusive: 0.501 µM [rising, partial curve, poor fit]"
same,Potency,PA-1,"inconclusive: 17.8 µM [rising, partial curve, poor fit]"
same,Potency,SKOV3,inactive
